Measured values taken from the supplement of paper PMC8728848.
This is one part of the list.

Assays:
Assay in all cases: glycan array binding signal (z-score within array); higher = stronger binding
Details in all cases: glycan notation: IUPAC condensed, linker removed
[1] = molecular target: Gal(b1-3)GlcNAc(b1-2)Man(a1-3)[Gal(b1-3)GlcNAc(b1-2)Man(a1-6)]Man(b1-4)GlcNAc(b1-4)[Fuc(a1-6)]GlcNAc
Method in brief: (§1)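 The binding signal is a Z-score computed within each array. Data were drawn from 3228 arrays in the Consortium for Functional Glycomics database, restricted to those with a known protein sequence. Scores were averaged over arrays of the same protein sequence at different concentrations or buffers, and over linkers, and negative values can be taken as non-binding.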

[2] = molecular target: Gal(b1-3)GlcNAc(b1-2)Man(a1-3)[GlcNAc(b1-4)][Gal(b1-3)GlcNAc(b1-2)Man(a1-6)]Man(b1-4)GlcNAc(b1-4)GlcNAc
Method in brief: as §1

[3] = molecular target: Gal(b1-3)GlcNAc(b1-2)[Gal(b1-3)GlcNAc(b1-6)]Man(a1-6)[Gal(b1-3)GlcNAc(b1-2)Man(a1-3)]Man(b1-4)GlcNAc(b1-4)GlcNAc
Method in brief: as §1

[4] = molecular target: Gal(b1-3)GlcNAc(b1-3)Gal(b1-3)GlcNAc
Method in brief: as §1

[5] = molecular target: Gal(b1-3)GlcNAc(b1-3)Gal(b1-4)Glc
Method in brief: as §1

[6] = molecular target: Gal(b1-3)GlcNAc(b1-3)Gal(b1-4)GlcNAc
Method in brief: as §1

[7] = molecular target: Gal(b1-3)GlcNAc(b1-3)Gal(b1-4)GlcNAc(b1-2)Man(a1-3)[Gal(b1-3)GlcNAc(b1-3)Gal(b1-4)GlcNAc(b1-2)Man(a1-6)]Man(b1-4)GlcNAc(b1-4)GlcNAc
Method in brief: as §1

[8] = molecular target: Gal(b1-3)GlcNAc(b1-3)Gal(b1-4)GlcNAc(b1-2)[Gal(b1-3)GlcNAc(b1-3)Gal(b1-4)GlcNAc(b1-6)]Man(a1-6)[Gal(b1-3)GlcNAc(b1-3)Gal(b1-4)GlcNAc(b1-2)Man(a1-3)]Man(b1-4)GlcNAc(b1-4)[Fuc(a1-6)]GlcNAc
Method in brief: as §1

[9] = molecular target: Gal(b1-3)GlcNAc(b1-3)Gal(b1-4)GlcNAc(b1-3)Gal(b1-4)GlcNAc(b1-2)[Gal(b1-3)GlcNAc(b1-3)Gal(b1-4)GlcNAc(b1-3)Gal(b1-4)GlcNAc(b1-6)]Man(a1-6)[Gal(b1-3)GlcNAc(b1-3)Gal(b1-4)GlcNAc(b1-3)Gal(b1-4)GlcNAc(b1-2)Man(a1-3)]Man(b1-4)GlcNAc(b1-4)[Fuc(a1-6)]GlcNAc
Method in brief: as §1

[10] = molecular target: Gal(b1-3)GlcNAc(b1-3)Gal(b1-4)GlcNAc(b1-6)[Gal(b1-3)GlcNAc(b1-3)]Gal(b1-4)Glc
Method in brief: as §1

[11] = molecular target: Gal(b1-3)GlcNAc(b1-3)Gal(b1-4)[Fuc(a1-3)]GlcNAc
Method in brief: as §1

[12] = molecular target: Gal(b1-3)GlcNAc(b1-3)Gal(b1-4)[Fuc(a1-3)]GlcNAc(b1-6)[Gal(b1-3)GlcNAc(b1-3)]Gal(b1-4)Glc
Method in brief: as §1

[13] = molecular target: Gal(b1-3)GlcNAc(b1-3)GalNAc
Method in brief: as §1

[14] = molecular target: Gal(b1-3)GlcNAc(b1-6)Gal(b1-4)GlcNAc
Method in brief: as §1

[15] = molecular target: Gal(b1-3)GlcNAc(b1-6)GalNAc
Method in brief: as §1

[16] = molecular target: Gal(b1-3)GlcNAc(b1-6)[Gal(b1-3)]GalNAc
Method in brief: as §1

[17] = molecular target: Gal(b1-3)GlcNAc6S
Method in brief: as §1

[18] = molecular target: Gal(b1-3)[Fuc(a1-4)]GlcNAc
Method in brief: as §1

[19] = molecular target: Gal(b1-3)[Fuc(a1-4)]GlcNAc(b1-2)Man
Method in brief: as §1

[20] = molecular target: Gal(b1-3)[Fuc(a1-4)]GlcNAc(b1-2)Man(a1-3)[Gal(b1-3)[Fuc(a1-4)]GlcNAc(b1-2)Man(a1-6)]Man(b1-4)GlcNAc(b1-4)[Fuc(a1-6)]GlcNAc
Method in brief: as §1

[21] = molecular target: Gal(b1-3)[Fuc(a1-4)]GlcNAc(b1-3)Gal(b1-3)[Fuc(a1-4)]GlcNAc
Method in brief: as §1

[22] = molecular target: Gal(b1-3)[Fuc(a1-4)]GlcNAc(b1-3)Gal(b1-4)[Fuc(a1-3)]GlcNAc
Method in brief: as §1

[23] = molecular target: Gal(b1-3)[Fuc(a1-4)]GlcNAc(b1-6)GalNAc
Method in brief: as §1

[24] = molecular target: Gal(b1-3)[GlcNAc(b1-6)]GalNAc
Method in brief: as §1

[25] = molecular target: Gal(b1-3)[Neu5Ac(a2-6)]GalNAc
Method in brief: as §1

[26] = molecular target: Gal(b1-3)[Neu5Ac(a2-6)]GlcNAc(b1-4)Gal(b1-4)Glc
Method in brief: as §1

[27] = molecular target: Gal(b1-3)[Neu5Ac(b2-6)]GalNAc
Method in brief: as §1

[28] = molecular target: Gal(b1-4)Gal
Method in brief: as §1

[29] = molecular target: Gal(b1-4)GalNAc(a1-3)[Fuc(a1-2)]Gal(b1-4)GlcNAc
Method in brief: as §1

[30] = molecular target: Gal(b1-4)GalNAc(b1-3)[Fuc(a1-2)]Gal(b1-4)GlcNAc
Method in brief: as §1

[31] = molecular target: Gal(b1-4)Glc
Method in brief: as §1

[32] = molecular target: Gal(b1-4)Glc6S
Method in brief: as §1

[33] = molecular target: Gal(b1-4)GlcNAc
Method in brief: as §1

[34] = molecular target: Gal(b1-4)GlcNAc(a1-6)Gal(b1-4)GlcNAc
Method in brief: as §1

[35] = molecular target: Gal(b1-4)GlcNAc(b1-2)Man
Method in brief: as §1

[36] = molecular target: Gal(b1-4)GlcNAc(b1-2)Man(a1-3)Man(b1-4)GlcNAc(b1-4)GlcNAc
Method in brief: as §1

[37] = molecular target: Gal(b1-4)GlcNAc(b1-2)Man(a1-3)[Gal(b1-4)GlcNAc(b1-2)Man(a1-6)]Man(b1-4)GlcNAc(b1-4)GlcNAc
Method in brief: as §1

B1: OGAA (protein)
chain: MVQKESQATLEERESELSSNPAASAGASLEPPAAPAPGEDNPAGAGGAAVAGAAGGARRFLCGVVEGFYGRPWVMEQRKELFRRLQKWELNTYLYAPKDDYKHRMFWREMYSVEEAEQLMTLISAAREYEIEFIYAISPGLDITFSNPKEVSTLKRKLDQVSQFGCRSFALLFADIDHNMCAADKEVFSSFAHAQVSITNEIYQYLGEPETFLFCPTEYCGTFCYPNVSQSPYLRTVGEKLLPGIEVLWTGPKVVSKEIPVESIEEVSKIIKRAPVIWDNIHANDYDQKRLFLGPYKGRSTELIPRLKGVLTNPNCEFEANYVAIHTLATWYKSNMNGVRKDVVMTDSEDSTVSIQIKLENEGSDEDIETDVLYSPQMALKLALTEWLQEFGVPHQY
glycan array binding signal (z-score) [1]: 0.031 | glycan array binding signal (z-score) [2]: -0.026 | glycan array binding signal (z-score) [3]: -0.044 | glycan array binding signal (z-score) [4]: -0.103 | glycan array binding signal (z-score) [5]: -0.008 | glycan array binding signal (z-score) [6]: -0.072 | glycan array binding signal (z-score) [7]: -0.086 | glycan array binding signal (z-score) [8]: 0.027 | glycan array binding signal (z-score) [9]: 0.078 | glycan array binding signal (z-score) [10]: -0.062 | glycan array binding signal (z-score) [11]: -0.103 | glycan array binding signal (z-score) [12]: -0.06 | glycan array binding signal (z-score) [13]: -0.12 | glycan array binding signal (z-score) [14]: -0.127 | glycan array binding signal (z-score) [15]: -0.082 | glycan array binding signal (z-score) [16]: -0.059 | glycan array binding signal (z-score) [17]: -0.088 | glycan array binding signal (z-score) [18]: -0.065 | glycan array binding signal (z-score) [19]: 0.177 | glycan array binding signal (z-score) [20]: 0.357 | glycan array binding signal (z-score) [21]: -0.106 | glycan array binding signal (z-score) [22]: -0.068 | glycan array binding signal (z-score) [23]: -0.104 | glycan array binding signal (z-score) [24]: -0.1 | glycan array binding signal (z-score) [25]: -0.044 | glycan array binding signal (z-score) [26]: -0.076 | glycan array binding signal (z-score) [27]: -0.096 | glycan array binding signal (z-score) [28]: -0.15 | glycan array binding signal (z-score) [29]: -0.108 | glycan array binding signal (z-score) [30]: -0.153 | glycan array binding signal (z-score) [31]: 0.005 | glycan array binding signal (z-score) [32]: -0.099 | glycan array binding signal (z-score) [33]: -0.02 | glycan array binding signal (z-score) [34]: -0.062 | glycan array binding signal (z-score) [35]: -0.078 | glycan array binding signal (z-score) [36]: -0.126 | glycan array binding signal (z-score) [37]: -0.089
